The source gives no read counts; variants with many changes may rest on few reads.
B1: LINE1-mini (parent)
chain: GGCAGAGCUCAACACAGCGUGGCAAAGUGGCUGUGGCUAGACUGCC

Variants of: B1
Assay: self-cleavage, relative activity (ratio to wild type); higher = more cleavage; in vitro, sequencing; the parent is a self-cleaving ribozyme
With G1C A6U G22U G40U the self-cleavage was 0.09. For G1A A4G U38A G40A, the self-cleavage was 0.06. Work on G30U C37A A39C yielded a self-cleavage of 0.02. Work on A25U G30U G33C yielded a self-cleavage of 0.11. U20G G36A G40A gave a self-cleavage of 0.33. Work on G5A A39G C45A yielded a self-cleavage of 0.02. In the case of G7U C15A G21C, the self-cleavage is reported as 0.13. A4C A16G U28G G33C gave a self-cleavage of 0.02. Work on A4G A24C A26U yielded a self-cleavage of 0.22. In the case of A25U U38A A39C, the self-cleavage is reported as 0.12. Work on G7U C8U G21C U32A yielded a self-cleavage of 0.16. Variant G5A G22C G36A U43G has a self-cleavage of 0.04. C13G C18A G22C U34G U38A C46A showed a self-cleavage of 0.04. G2U C10A G40A gave a self-cleavage of 0. With C3G C10A C15G G40U C45G the self-cleavage was 0.01. Work on C8U C13U G40A C45G yielded a self-cleavage of 0.19. In the case of G17A C18U C37U, the self-cleavage is reported as 0.04. Work on C3G C10A C23G A25G yielded a self-cleavage of 0. Work on G1C C10U C15G C18G G27A C46A yielded a self-cleavage of 0.01. With G5C C10G G30A C46G the self-cleavage was 0.02. C15G U34A G35A showed a self-cleavage of 0.04. With A6U G17A C18U U32A the self-cleavage was 0.09. Variant A6C A24G G30U has a self-cleavage of 0.65. C8A U9G G33A gave a self-cleavage of 0.03. For C10G A11U U28G, the self-cleavage was 0.03. C8U U20C G30C showed a self-cleavage of 0.02. Work on A11U G21C G33A yielded a self-cleavage of 0.02. C10G C18G G33C U34A gave a self-cleavage of 0.01. For C13G C23U G30A, the self-cleavage was 0.21. G7A U9G G22C G33A showed a self-cleavage of 0.05. C3U U9A G19C G22A showed a self-cleavage of 0.03. A4U C15U A25U A41G gave a self-cleavage of 0.08. For G21C C31G G44C, the self-cleavage was 0.02. For A11G C18A U20A G22A, the self-cleavage was 0.01. Work on A4U U32G G36A A39G G40A U43C G44C yielded a self-cleavage of 0.02. G1U A6C G21A G40U showed a self-cleavage of 0.04. For C15G A24G A25C, the self-cleavage was 0.02. For G1A G7C C46G, the self-cleavage was 0.41. Work on C3G U9A C18G U32G C45A yielded a self-cleavage of 0.21. For G2A U9G G35A, the self-cleavage was 0.17. A14C G35U U38C G44U showed a self-cleavage of 0.05. In the case of G2A A6G U9G, the self-cleavage is reported as 0.05. G1A C10A C15U G27C U32A G36U A41C showed a self-cleavage of 0.02. In the case of C3G A26U A39G, the self-cleavage is reported as 0.01. G7U C15A U20G G27C showed a self-cleavage of 0.13. For A16U G17C U20C, the self-cleavage was 0.15. G21C G33U G35C G44A gave a self-cleavage of 0.15. Variant G5A C15A A39C has a self-cleavage of 0.18. For C3A G21C C42A, the self-cleavage was 0.16. For A4G C8G G27C C31U C46A, the self-cleavage was 0.02. C8A U9G C46A gave a self-cleavage of 0.02. C8U A11G U34A C37U showed a self-cleavage of 0.02. In the case of C15G G22U U32A, the self-cleavage is reported as 0.01. With G1U C10A C18U G29U G30A the self-cleavage was 0.02. Variant U9C A24G G35U A39C has a self-cleavage of 0.01. With C15U U20G A24G U32A G35U the self-cleavage was 0.03. In the case of C13U A14U A16U A41U, the self-cleavage is reported as 0.08. With G2U A4C A6U C18U A39G the self-cleavage was 0.05. For C3U C10A U20A C31U, the self-cleavage was 0.06. With G1C C15U C18A G27U G40U the self-cleavage was 0.02. G7A G22A G40A gave a self-cleavage of 0.09. For U9G G19C C45U, the self-cleavage was 0.04. C13A A14C U28G G36C gave a self-cleavage of 0.01. Variant G21A G36C C42U has a self-cleavage of 0.08. With G5U G22A U28A A39U G44U the self-cleavage was 0.05. Variant G2A C3A A4G A6U has a self-cleavage of 0.15. G7U A12U G36C A39G showed a self-cleavage of 0.02. G1U U20G C37A gave a self-cleavage of 0.03. C18U C23U G29A C46A gave a self-cleavage of 0.83. Work on C8U U9G C46G yielded a self-cleavage of 0.14. C23G G33U C46U gave a self-cleavage of 0.08. With C10A G21U C46A the self-cleavage was 0.18. In the case of A14G C23A G30U, the self-cleavage is reported as 0.28. For G1U C13A A14C G17A G35U, the self-cleavage was 0.03. A14G C31G G33A U34C showed a self-cleavage of 0.03. With C10U C15G G21A G27A U28G G36A U38C C42A the self-cleavage was 0. With C13A C18G U32A U43C the self-cleavage was 0.1. U9A G33U C45U gave a self-cleavage of 0.06. G2U A12U C18U G19A A26U G35C showed a self-cleavage of 0. C18G C42A G44A showed a self-cleavage of 0.01. For U9G G29A C46G, the self-cleavage was 0.05. G2U C8U A14C G22C showed a self-cleavage of 0.04. A6C A11U A12C showed a self-cleavage of 0.04. For C13A C23U U34C, the self-cleavage was 0.05. For G29A G36U A39C, the self-cleavage was 0.02. C10A A14U A25G showed a self-cleavage of 0.01. With A4G C10G U34G the self-cleavage was 0.04. Work on A12U A25G G29A yielded a self-cleavage of 0.12. Variant C37G G40U C45A has a self-cleavage of 0.11. G5A U20C A25U gave a self-cleavage of 0.05. A4U A11C C13U C18G G40U gave a self-cleavage of 0.03. G5U A14U C15A G17A G21U A25C G27U U38A gave a self-cleavage of 0.03. A6C A39U C46G showed a self-cleavage of 0.39. Variant A4U C8G G19U U34C has a self-cleavage of 0.09. A16G C37A U38A gave a self-cleavage of 0.02. For G7U C8G G29U C42U, the self-cleavage was 0.13. G5A C8A U20C C31U showed a self-cleavage of 0.04. With G7C C13U G29A G36U A41U the self-cleavage was 0.16. C15G C18G G36U showed a self-cleavage of 0.02. In the case of A12C A25C U32C G33A C42U G44C C45U, the self-cleavage is reported as 0. G19U G27C G40C C46U gave a self-cleavage of 0.01. Work on G7C C13G G30C G40C yielded a self-cleavage of 0.04. With G22U U32G U43A the self-cleavage was 0.06. With G19C G30U U34C U43A the self-cleavage was 0.16. Work on C3A C10G A16G C18U A24C yielded a self-cleavage of 0.04. In the case of G5U U9A G21U G40U, the self-cleavage is reported as 0.05. In the case of G5A C42A U43A, the self-cleavage is reported as 0.05. Work on C8G G19A G44C yielded a self-cleavage of 0.02. A6U C37G A41U gave a self-cleavage of 0. Work on G17A G19U U20A yielded a self-cleavage of 1.12. For A4C A11C A26C G27C, the self-cleavage was 0.01. C8A G17U C42G showed a self-cleavage of 0.2. With G2C C31U G33U C42U the self-cleavage was 0.02. Variant C15A A16C C31U has a self-cleavage of 0.02. In the case of C10G C18G G19A A39U G40C, the self-cleavage is reported as 0.02. In the case of C23A A39C G44U, the self-cleavage is reported as 0.06. Work on G29U C31A C46G yielded a self-cleavage of 0.14. G7C C23A U38C gave a self-cleavage of 0.03. A4C A6G G22C C45A C46G showed a self-cleavage of 0.04. In the case of A11U A16U G40A, the self-cleavage is reported as 0.04. Variant G2C G19A G29U C46U has a self-cleavage of 0.26. Work on A6U C23U A26G G30U C37U yielded a self-cleavage of 0.05. Work on A14U G21U A25G G44C C45A yielded a self-cleavage of 0.06. In the case of C10U C15G G35C U38G G44A, the self-cleavage is reported as 0. C3U G21U G30A gave a self-cleavage of 0.35. In the case of G1U A24C G33U U38C, the self-cleavage is reported as 0.01. A26C G35U G36A gave a self-cleavage of 0.08. A6U C15U G33U G36U showed a self-cleavage of 0.06. Variant C8G A39U C46U has a self-cleavage of 0.04. Variant G1U A6U G7A C23G G44A has a self-cleavage of 0.03. Work on C13G C15A U20C C31A G33U C37G yielded a self-cleavage of 0.03. For C10U A12U G40U, the self-cleavage was 0.03. Work on G7A G22C U28C yielded a self-cleavage of 0.01. For U20G G21U C46A, the self-cleavage was 1.76. In the case of C3A C37U U38G, the self-cleavage is reported as 0.03. With A12G A16U G36U U38C the self-cleavage was 0.01. Variant A4G G17U G29A U34G C42U has a self-cleavage of 0.43. In the case of A4C A16G G44A, the self-cleavage is reported as 0.06. A14C C23G G30A U38A C46A gave a self-cleavage of 0.02. A6C U20G C42A gave a self-cleavage of 0.13. For A16C G19A C45U, the self-cleavage was 0.16. In the case of C3A A14G C18U G21A A41U, the self-cleavage is reported as 0.12. Work on G5U G21U C46A yielded a self-cleavage of 0.05. A11U A26C A41U gave a self-cleavage of 0.11. C13A C18U U20G C23A G29U C45U gave a self-cleavage of 0.02. With A16U A41U G44A the self-cleavage was 0.02. Work on C10A G33A G35A yielded a self-cleavage of 0.03. Variant G1C A4C A24C U32A C37G has a self-cleavage of 0.01. Work on U28C C42U C45U yielded a self-cleavage of 0.1. In the case of G33A C37A C42A, the self-cleavage is reported as 0.04. For C23G G29A U32A C37U, the self-cleavage was 0.02. G2A G5U U9G G29U gave a self-cleavage of 0.15. With G5U A24G G27U G30U the self-cleavage was 0.27. A6G G7C A25U gave a self-cleavage of 0.08. C15U A26U G44U gave a self-cleavage of 0.18. In the case of U28G G33A C45G, the self-cleavage is reported as 0.02. With A24U A39G C46A the self-cleavage was 0.08. For U9G A16U C23A G27U A39G, the self-cleavage was 0.02. U9C C15A C31A gave a self-cleavage of 0.01. Work on A25G G29A C31G G36C yielded a self-cleavage of 0.03. Work on G2C C3A C8G G21C U38A yielded a self-cleavage of 0.06. G1C C10G G21U C31U U34A gave a self-cleavage of 0. Variant A25U U28A G36C has a self-cleavage of 0.1. With G1C G17C U34C the self-cleavage was 0.03. With C3A G27A G33A U34A the self-cleavage was 0.23. With C15U A16C C37U the self-cleavage was 0.07. In the case of A14G C18U U28C, the self-cleavage is reported as 0.62.
